Test results as given in PubChem BioAssay AID1671194 (National Center for Advancing Translational Sciences (NCATS), 2021).
Out of some 140,000 compounds screened, about 240 (0.17%) were called active. Inconclusive results, whose numbers are uncertain, are shown with a selection of clear calls. The call rests on the fitted dose curve; in most records, active means well fitted inhibition curve with a large enough effect; inconclusive means small, poorly fitted or top-dose-only effect; inactive means no such curve, though single readings can be large or run the other way. Potencies of inconclusive entries are doubtful fits and often do not repeat.

Test: Primary qHTS assay for inhibitors of alpha-synuclein gene (SNCA) expression; further: nearly all actives have a fitted effect of over 45% in size
Conditions: HEK-293 SNCA-luciferase knock-in, luminescence, 24 h; series mostly up to 57.2 µM
Potency means the concentration at half of the fitted maximal effect; tags describe the fitted curve by direction and shape.

Potency, inconclusive:
Cc1ccc(-n2c(C3CCN(C(=O)c4ccc(C(F)(F)F)cc4)CC3)n[nH]c2=O)cc1 12.6 µM [inhibitor, partial curve], CCOc1ccccc1CC1C(=O)Nc2ccc(Br)cc21 (stereo unspecified) 15.8 µM [inhibitor, partial curve, poor fit], COc1ccccc1Nc1ncc2c(n1)CN(C(=O)c1ccc(Cl)cc1)CCN2 14.1 µM [inhibitor, partial curve, poor fit], CN[C@@H]1CN(c2ccc3c(=O)c(C(=O)O)cn(-c4nccs4)c3n2)C[C@@H]1OC 14.8 µM [inhibitor, single point], COc1cc(OC)cc(C(=O)N2CCC(Cc3nc(-c4cccc(OC)c4)no3)CC2)c1 15.8 µM [inhibitor, partial curve, poor fit], CCOC(=O)C1CCCCN1C(=O)c1oc2c(Cl)cc(C)cc2c1C (stereo unspecified) 39.8 µM [inhibitor, single point], CCC(=O)Nc1cccc(OCC(=O)NCc2sc(C)nc2CC)c1 2.82 µM [inhibitor, full curve, poor fit], COC(=O)c1cccc(C(=O)N2CCC(Cc3nc(-c4ccc(F)cc4)no3)CC2)c1 31.6 µM [inhibitor, single point], COc1ccc(OC)c(CCNC(=O)c2cnn(-c3ccccc3)c2C2CCN(C(=O)OC(C)(C)C)CC2)c1 39.8 µM [inhibitor, single point], COC(c1ccccc1)(c1ccccc1)[C@H](Oc1nc(C)cc(C)n1)C(=O)O 17.1 µM [inhibitor, partial curve], COc1cc(OC)cc(N2CCN(S(=O)(=O)c3ccc(-n4cnnn4)cc3)CC2)c1 39.8 µM [inhibitor, single point], Cc1cn2nnc(C(=O)N3CCC(C(=O)Nc4cccc(F)c4)CC3)c2c(=O)[nH]1 12.6 µM [inhibitor, single point], O=C(c1ccc2nc(-c3ccccn3)oc2c1)N1CCCCC1 25.1 µM [inhibitor, single point], Cc1cn2nnc(C(=O)NCCC3=CCCCC3)c2c(=O)[nH]1 6.31 µM [inhibitor, single point], Cc1ccc(Nc2ccnc(N3CCCC(C(=O)N4CCCC4)C3)n2)cc1 (stereo unspecified) 1.78 µM [inhibitor, partial curve, poor fit], CCOCc1cc(CN2CCN(c3cccc(Cl)c3)CC2)c(O)c2ncccc12 14.1 µM [inhibitor, partial curve, poor fit], CCN(Cc1ccccc1)Cc1c(O)ccc2c(=O)c(-c3ccccc3Cl)c(C(F)(F)F)oc12 39.8 µM [inhibitor, single point], CN(Cc1ccccc1)Cc1cn([C@H]2CO[C@H]3[C@@H]2OC[C@@H]3NC(=O)Nc2cccc(C(F)(F)F)c2)nn1 7.94 µM [inhibitor, single point], Cc1cc(C)cc(-c2ccc(CN3CCCC3C(=O)NC3CCCC3)cc2)c1 (stereo unspecified) 8.91 µM [inhibitor, partial curve, poor fit], Fc1ccc(CNC[C@H]2Cn3c(-c4ccc(F)cc4)cnc3CO2)cc1 0.891 µM [inhibitor, full curve, poor fit], COC(=O)c1c(NC(C)=O)c2cc(NC3CCCCCC3)cnc2n1CC1CCCO1 (stereo unspecified) 1 µM [inhibitor, partial curve, poor fit], Cc1cc(C)cc(-n2ccnc2SCC(=O)Nc2nnc(C)s2)c1 2.51 µM [inhibitor, partial curve, poor fit], CCN1CCN(C(=O)c2ccc3oc(-c4ccncc4)nc3c2)CC1 8.91 µM [inhibitor, single point], CC(C)C[C@@H]1N[C@H](C(=O)NCc2ccc(C(F)(F)F)cc2)Cc2c[nH]c3cccc1c23 39.8 µM [inhibitor, single point], CCN(CC)c1ccc(NS(=O)(=O)c2ccc(-c3cnc(C4CC4)o3)cc2)c(C)c1 28.2 µM [inhibitor, single point], COc1ccc(-c2noc(CN(C(=O)COc3cc(C)c(Br)c(C)c3)C(C)C)n2)cc1 20 µM [inhibitor, partial curve, poor fit]

Potency, inactive:
O=C1NC(=NC2CCCCC2)C2(CCN(Cc3cccnc3)CC2)N1c1cc(F)cc(F)c1, O=C1CCCN1CCCN1C(=O)[C@H]2CN(Cc3cccc(OC(F)(F)F)c3)C[C@H]2C1=O, C[S+](=O)([O-])c1ccc(-c2cc(-c3cccnc3)c3cncn3c2)cc1, COc1ccc(CNC(=O)C2CCN(C(=O)c3nnn4c3COC(c3ccc(C)cc3)C4)CC2)cc1 (stereo unspecified), CC(=O)N1C[C@@H](F)[C@@H](OCc2nc3ccc(C(F)(F)F)cc3[nH]2)C1, COc1ccc(Cl)cc1-c1ccc2c(c1)C(=O)N1CCN(C(=O)C3CC3)C[C@@H]1C(=O)N2, CN1c2cc(C(=O)Nc3ccc(Cl)cc3)ccc2C(=O)N2CCCCC21 (stereo unspecified), O=C(NCc1nnc2ccc(-c3ccccc3)nn12)c1cc(F)ccc1Cl, Fc1ccc(-c2cn3cc(Cc4ccc(Cl)cc4)sc3n2)cc1, CCC(CC)C(=O)Nc1cccc(-c2nc3ccccc3s2)c1, CC(=O)Nc1cccc(-c2cnc3[nH]cc(CC(=O)N4CCOCC4)c3c2)c1, CCOC(=O)CSc1nc2ccc(NC(=O)c3ccccc3F)cc2s1, CCCS(=O)(=O)N1CCC2(CC1)CC2c1noc(C)n1 (stereo unspecified), O=C(CNC(=O)c1ccccc1)NCc1nnc2ccc(-c3ccccc3)nn12, Clc1cccc(-c2noc(-c3ccc(NCC4COCCO4)nc3)n2)c1 (stereo unspecified)
